Drawing on PMC12136788, this text covers binding signal for 22 molecules.

This is one part of the list.

T1: UNK ZnF1-3 (human, UniProt Q9C0B0 31-174)
T1 sequence: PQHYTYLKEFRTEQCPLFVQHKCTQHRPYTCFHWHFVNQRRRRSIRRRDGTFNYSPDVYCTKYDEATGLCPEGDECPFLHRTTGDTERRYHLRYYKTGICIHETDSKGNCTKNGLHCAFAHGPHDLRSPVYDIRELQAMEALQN

B1: chr3:160249337:160249338:-_ENSG00000186432_ENST00000334256|hu_hu|FALSE|FALSE (ssRNA)
RNA: GGGAGUUCUACAGUCCGACGAUCGGGCAAUAUUCCAGAUUUUAUUAAGUCAUCAAUUGGUGGAUUUCGAUCACUGGACAAAAGCUUCCUAGCAGCUUGAACUGCACUUAAUUGAAUUCCUUGGUUAUCACUUGAAGCAUUUUGCAACAGAGGAUUGAGCAUCA
B2: chr10:36854569:36854570:-_ENSMUSG00000069662_ENSMUST00000092584|mus_hu|motif|central (ssRNA)
RNA: GGGAGUUCUACAGUCCGACGAUCAGAACCACAAUAAAAUUUACUCCUGAUGGCAUGCAAGAUCUUCCUAAAAAUUAACCGGAGACCGGGAAGUCUCAGUAUUAUUAGAACAUAAAAAAACACAACAAAUUUGUACAUUUUAUUCAACAGAGGAUUGAGCAUCA
B3: 36555558_36557150_1177_CDS_ENSMUSG00000032116_ENSMUST00000120381|mouse|control|control (ssRNA)
RNA: GGGAGUUCUACAGUCCGACGAUCGGUUGUGGGCUGGUGCUCAGAAACAGAUGCAAUAAUGGGAAUGUUAUUCUUAGCAUAAGAGGGAUCCAGCAGAGAGUAGAAACGCCCUGUCCAGGGAGAAAUUUUUCCUGUUAGCAUGAGCAACAGAGGAUUGAGCAUCA
B4: chr9:5785663:5785664:-_ENSG00000099219_ENST00000339450|hu_hu|motif|central (ssRNA)
RNA: GGGAGUUCUACAGUCCGACGAUCGAGACAAGCAGCUUCAAGGACGUUUUCUCCGGCAAUGCAUACUUACUGUGCUCUUUCGGUUCAGACAGAUCCACAGACCACCUUUCAAGAGCAUUCCUCUCUCAUUUCCUCCAUCACCCACAACAGAGGAUUGAGCAUCA
B5: chr6:160170297:160170298:+_ENSG00000146457_ENST00000337387|hu_hu|FALSE|FALSE (ssRNA)
RNA: GGGAGUUCUACAGUCCGACGAUCCAAAGCUCUUUUAAACAUGUGCCUGUUGAAUGGAACGGGGAUUUCAUAAAAUUCACUAAAAAAAAUAAUGCAGUGAGUCUCAUCACAGCUAAUAUCCUUAUACAAUCUAGUUGUGAAAUGCAACAGAGGAUUGAGCAUCA
B6: chr2:179515052:179515053:+_ENSMUSG00000000305_ENSMUST00000000314|mus_hu|mus_mus_mus_hu_False|58_68 (ssRNA)
RNA: GGGAGUUCUACAGUCCGACGAUCGCUGUCCCAUGCAGUCACCGUGAACGCCACCUGCUCGGAGGGGAUCUUCAACUCCCUAGUGGCGAAGACUGUCCCAUCUGCCCCAACUUUGAAGUCCAUGCUGUUGGUCUCAUAUUGUGUCAACAGAGGAUUGAGCAUCA
B7: chr16:94664741:94664742:+_ENSMUSG00000040785_ENSMUST00000117648|mus_hu|mus_mus_mus_hu_False|8_48 (ssRNA)
RNA: GGGAGUUCUACAGUCCGACGAUCUGGUACUGAUCUUGGUAGCUGAUAUUCAGGAGAAAGGCUGGCCAAGGGUGUAUAUAUGCUGGUGAACUGCGACAAACCUGGUAACACGUUUAUGUAUGCUGGCCGCUGGGUGAUGAUAUCCAACAGAGGAUUGAGCAUCA
B8: chr14:78894897:78894898:-_ENSMUSG00000022016_ENSMUST00000123853|mus_mus|motif|central (ssRNA)
RNA: GGGAGUUCUACAGUCCGACGAUCAUUUAAUGUUAAUAGUGGUUUUCUAACUAAGAAAACACUAAAGUAAAAGAAUAAACGGGUGGGAAGGUUAAAGUUUAUCCUCUCACGCACGCGCACACACACACACACACACAUUCUCUCCAACAGAGGAUUGAGCAUCA
B9: chr1:230810825:230810826:+_ENSG00000135775_ENST00000366669|hu_mus|FALSE|FALSE (ssRNA)
RNA: GGGAGUUCUACAGUCCGACGAUCUUUCUGGUGAAAGGCGUCUGGGUCCCCAGGGUUGAAGAGCGAGGGUAGCUUUUCCUCUAGGCCUCGAACUAUUUCUGGCCACACAGAAUUCACCAAGAAAUCAUAGCCAGGAACGAUAGUCAACAGAGGAUUGAGCAUCA
B10: chr17:42882304:42882305:-_ENSG00000182963_ENST00000426548|hu_mus|FALSE|FALSE (ssRNA)
RNA: GGGAGUUCUACAGUCCGACGAUCCUUGUAGGCAAUCUUAGCAUUGGACAGCUCAGUGUACUGGAUCUGAUCUGGUUUGACAGCAAUGUUAUAGCCAGGGGGAGCAGAGGGUGUGUUCCAAGUGAAAGGAUAAUUAUAAGCACCCAACAGAGGAUUGAGCAUCA
B11: 123077761_123079139_649_CDS_ENSMUSG00000028114_ENSMUST00000029759|mouse|control|control (ssRNA)
RNA: GGGAGUUCUACAGUCCGACGAUCCAAUUCUCUGAUGUCAAAGGCUUCUAUGUCUGCUUGUAAGUACAUGGGAGGAGUGUUUGACUUAGCUAUUAACUCAUCCUUUAGUCUGAUGAGUUCCCUAAGUUUAGGGUAUUCUUCAAACAACAGAGGAUUGAGCAUCA
B12: chr13:100192284:100192285:-_ENSMUSG00000052727_ENSMUST00000064762|mus_mus|motif|central (ssRNA)
RNA: GGGAGUUCUACAGUCCGACGAUCUGGUAAAAUUUCCAUUAGCAAAUGAUUAAAUUUAUAAAACGAGUAUUAGAAAGCUCCGGAAUUUCAUAAGCUAUUGGAAACACUUAAAACAUUCAUAUACACUGGGGAAACCAUUCACUACAACAGAGGAUUGAGCAUCA
B13: chrX:112058718:112058719:-_ENSG00000126016_ENST00000371959|hu_hu|FALSE|FALSE (ssRNA)
RNA: GGGAGUUCUACAGUCCGACGAUCAACCAUCUGCUGGGCUCUGGAAACAAUGGCAAAAGGGUCUGCUGGCACUGGCUGAUAAGAAGCAGAGGAUGGCUGAGCCCGAGGCAUAGCUGAAUAGGCUUCUCCUGGCUGCUGCUGUGGCAACAGAGGAUUGAGCAUCA
B14: chr2:90693216:90693217:+_ENSMUSG00000027282_ENSMUST00000136872|mus_hu|motif|central (ssRNA)
RNA: GGGAGUUCUACAGUCCGACGAUCCUCCUUGAUAACGUGGUCAAAGGAAGAUGAGACUUCUUUCUGUACAUUUCCAGGUCCGGACUCCUGUAAAACUUUACCAUGGACCACAGUUCCAAGGACUCCCGAACACAGUCUUGGAGUCAACAGAGGAUUGAGCAUCA
B15: 123022165_123022285_73_3pUTR_ENSMUSG00000025786_ENSMUST00000026892|mouse|control|control (ssRNA)
RNA: GGGAGUUCUACAGUCCGACGAUCCCCAGCCGCCAGCGUCCGCGAUGGCACGGGCACCCGGCGCCACGGCUUGCCGGACUCGGCCUCACACGGGGCGGUGCGAAGGAGAAGCCCAUGGAGCUCCAGGCGGUGGCGGCAGCCGCGCAACAGAGGAUUGAGCAUCA
B16: chr6:29491266:29491267:-_ENSMUSG00000012535_ENSMUST00000012679|mus_mus|motif|central (ssRNA)
RNA: GGGAGUUCUACAGUCCGACGAUCGGGUUGGGCUCUACAUUAAAAGCAACUUUGACCCUGGCUAGUCCGGACUAUCAUCCCGGACCAUGAUAUAAGCAGACCAGGCUCCUUGUCUGGACAUUUCUAAAGGUGAACAGUUGGGGGCAACAGAGGAUUGAGCAUCA
B17: chr2:68236527:68236528:-_ENSMUSG00000027030_ENSMUST00000102715|mus_hu|FALSE|FALSE (ssRNA)
RNA: GGGAGUUCUACAGUCCGACGAUCCAUUGAACCUCCACUUAGUAAUUUCAUGACCAGCCAAAGUUCAUCUUUGACCACAAAAGAGGUGUAAUAGGUCACUACGUUGGGAUGGCUGCACUGACUCAUGGCUUGAAUUUCUUUUAACAACAGAGGAUUGAGCAUCA
B18: chr11:122931392:122931393:-_ENSG00000109971_ENST00000227378|hu_hu|FALSE|FALSE (ssRNA)
RNA: GGGAGUUCUACAGUCCGACGAUCUGUCAGAACCAUAGAAGACACCUCCUCUGGAUAGAAGCUUUUGGUCUCUCCCUUGUAUUCUACUUGGACCUUGGGCCUGCCAGCAUCAUUCACCACCAUAAAGGGCCAAUGUUUCAUAUCCAACAGAGGAUUGAGCAUCA
B19: 49671451_49671571_1540_CDS_ENSG00000102935_ENST00000562871|human|control|control (ssRNA)
RNA: GGGAGUUCUACAGUCCGACGAUCCUGGAUGUGCUCGGUGAGGGAGGACUCAGUAAGGAAACCCAUGGAGCACUGGUUGCAGAAGAAAGCAUUAUUACCGUCAGAGGGGUUGGCGUUGGGGCCGCAGUGGGAGACGCGGAUGUGCAACAGAGGAUUGAGCAUCA
B20: chr8:63386198:63386199:+_ENSMUSG00000038005_ENSMUST00000037190|mus_mus|FALSE|FALSE (ssRNA)
RNA: GGGAGUUCUACAGUCCGACGAUCGGUCCCACUUCAAAGCACUGCACUAACAGGGCAGCUUGUUCAUCCUGCAAGCUGGUCUAUGUUCUCUUCACUUCUGCUUGCCAGAUGAUCUUCAAUAAUUUUUGCAAACAGAUCCCUCUUCAACAGAGGAUUGAGCAUCA
B21: chrX:153986339:153986340:-_ENSMUSG00000046873_ENSMUST00000058098|mus_hu|FALSE|FALSE (ssRNA)
RNA: GGGAGUUCUACAGUCCGACGAUCAGGGACACAAAGACCCUCCAAGUUAUUUUUUUAUGUGAACAUAUAUUUACAGUAAAUAUUCAAUAAUACUUUUUACAGCUUACUUAAAUAGAAACAUGCUUUUUCUAAUCCAUAAAUAACCAACAGAGGAUUGAGCAUCA
B22: chr11:74329583:74329584:+_ENSG00000077514_ENST00000263681|hu_hu|FALSE|FALSE (ssRNA)
RNA: GGGAGUUCUACAGUCCGACGAUCAGACGAAGAGGAUUCAGCAGGAGCUCUAGGGACGGCAGCUGCACAUUGUAUAGCACUAAAUUUGCUGCAGUUCUGCAAGUUGCUUUUAAGGAUGUCAUAGUCAGUAUUGAACAGAGGCCCCAACAGAGGAUUGAGCAUCA

This test deals with T1, UNK ZnF1-3. As to the kind of experiment: nsRBNS (natural sequence RNA bind-n-seq); RBNS binding buffer (assumed for nsRBNS): 25 mM Tris pH 7.5, 150 mM KCl, 3 mM MgCl2, 0.01% Triton X-100, 500 ug/ml BSA, 20 U/ml SUPERase-In, 4 C; UNK is unkempt and MSI1 is Musashi-1; names of the RNAs are library labels; protein concentration not given here; high values mean tight binding.
Molecule B1 returned a binding signal of 1.05 enrichment R.
B2 had a binding signal of 1.97 enrichment R.
Under B3 stands 1.69 enrichment R; under B4, 1.12 enrichment R.
As for B5, the binding signal stood at 0.725 enrichment R.
B6 returned a binding signal of 0.727 enrichment R.
Under B7 stands 1.12 enrichment R.
The same measure for B8: 0.999 enrichment R; for B9: 0.872 enrichment R; for B10: 1.1 enrichment R.
The same measure for B11: 0.626 enrichment R; for B12: 2.32 enrichment R; for B13: 1.68 enrichment R.
Regarding B14, the binding signal was 0.748 enrichment R.
The molecule B15 returned a binding signal of 0.656 enrichment R.
For B16, the binding signal was determined as 1.43 enrichment R.
The same measure for B17: 0.891 enrichment R; for B18: 1.16 enrichment R; for B19: 2.33 enrichment R.
Under B20 stands 0.845 enrichment R.
In turn, B21 had a binding signal of 0.28 enrichment R.
B22: the binding signal was determined as 1.58 enrichment R.
